Laboratory results published in patent US20260193296A1 (priority 2023, published 2026).

System: CsPUB21
Settings: for E3 ligase activity of CsPUB21 protein in citrus: summary statement, demonstrated by experiments; for inhibition of the enzyme activity of CsPUB21 (self-ubiquitination): SDE3 and CsPUB21 exist at the same time, FIG. 2B; for inhibitory effect on the E3 ligase activity of CsPUB21: co-presence of SDE3 and CsPUB21, flg22 and chitin polypeptide as controls, FIG. 1C
From the text: Firstly, a vector for in vitro ubiquitination detection in Escherichia coli was constructed: a full-length clone of CsPUB21 was constructed into a vector pACYCDuet-CDS-Myc-AtUBC8-S by double digestion a enzyme ligation method to obtain a vector pACYCDuet-CsPUB21-Myc-AtUBC8-S. The full-length clone of SDE3 was constructed into a vector pGEX-DC by the double enzyme digestion ligation method to obtain a vector pGEX-SDE3.
(1) The vector pACYCDuet-CsPUB21-Myc-AtUBC8-S, the vector pGEX-SDE3, a vector pCDFDuet-AtUBA1-S and a vector pET-28a-FLAG-UBQ were jointly transferred into BL21 (DE3) competent cells, in which CsPUB21 served as an E3 ubiquitin ligase, AtUBC8 served as an E2 ubiquitin-conjugating enzyme, AtUBA1 served as an E1 ubiquitin-activating enzyme, and UBQ was a ubiquitin small molecule protein Ubiqutin.
(2) A strain containing an expression vector was cultured at 37° C. until Od600nm=0.4-0.6. After addition of 500 nM isopropyl β-D-thiogalactoside (IPTG), protein induction expression was performed at 28° C. for 10 hours, followed by reaction overnight at 4° C.
(3) The crude extracted protein material was separated by 8% SDS-PAGE gel, and the self-ubiquitination level of CsPUB21 was analyzed by immunohybridization using an anti-c-myc tag antibody.
(3) Inhibition of the enzyme activity of CsPUB21 by truncated peptides screened by ubiquitination experiment

Sequence	E3 ligase activity of CsPUB21 protein in citrus	inhibition of the enzyme activity of CsPUB21 (self-ubiquitination)	inhibitory effect on the E3 ligase activity of CsPUB21
DPMIWGYVMLSESKDPMIWGYVMLNDSK [AMP-2β]	inhibit the E3 ligase activity of CsPUB21 protein	–	–
DPMIWGYVMLNDSK [AMP-β]	inhibit the E3 ligase activity of CsPUB21 protein	–	–
MKKVKNIFHKIANADPMIWGYVMLNDRLSK [AMP9]	inhibit the E3 ligase activity of CsPUB21 protein	significantly inhibit	obvious inhibitory effect
DPMIWGYVMLSESK [AMP3-14, DPMIWGYVMLSESK]	inhibit the E3 ligase activity of CsPUB21 protein	minimum peptide sequence that inhibited the enzyme activity of CsPUN21	–
MKKVKNIFHKIANADPMIWGYVMLSESK [AMP3]	inhibit the E3 ligase activity of CsPUB21 protein	significantly inhibit	obvious inhibitory effect
MKKVKNIFHKIANADPMIWGYVML [AMP3-24]	inhibit the E3 ligase activity of CsPUB21 protein	–	–
DPMIWGYVMLNDRLSK [AMP9-16]	inhibit the E3 ligase activity of CsPUB21 protein	–	–

Ends that are not written are not given here.
